# Experimental data: the supplement of paper PMC8728848
# Some of the results follow.
# B1: Arath Fbox (Arabidopsis thaliana), NP_178341.1 (protein)
# chain: EFTWGRKRRVKSESSPFDSFPEDCISYIISFTNPRDACVAATVSKTFESTVKSDIIWEKFLPADYESLIPPSRVFSSKKELYFSLCNDPVLFDDDKKSVWLEKASGKRCLMLSAMNLSIIWGDNPQYWQWIPIPESRFEKVAKLRDVCWFEIRGRTNTRVLSPRTRYSAYIVFKGVDKCYGFQNVAIEAAVGVVGQEPSRRLICFSEAIRRGRRNVVKPKQREDGWMEIELGEFFNDGGIMDNDEIEMSALETKQLNRKCGLIIQGIEIRPAKILAAAAASFLEQKLISEEDLNSAVDHHHHHH
# How the values were obtained:
# Assay in all cases: glycan array binding signal (z-score within array); higher = stronger binding
# Conditions in all cases: glycan notation: IUPAC condensed, linker removed
# Fuc(a1-2)Gal = biological target: Fuc(a1-2)Gal
# Summary of the method: (§1)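 The Consortium for Functional Glycomics database supplied 3228 glycan arrays, of which those lacking an available protein sequence were dropped. The binding signal, a within-array Z-score, was averaged across arrays of the same protein sequence and across linkers. Negative scores can be read as non-binding.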
# Fuc(a1-2)Gal(b1-3)GalNAc = biological target: Fuc(a1-2)Gal(b1-3)GalNAc
# Summary of the method: as §1
# [1] = biological target: Fuc(a1-2)Gal(b1-3)GalNAc(a1-3)[Fuc(a1-2)]Gal(b1-4)Glc
# Summary of the method: as §1
# [2] = biological target: Fuc(a1-2)Gal(b1-3)GalNAc(a1-3)[Fuc(a1-2)]Gal(b1-4)GlcNAc
# Summary of the method: as §1
# [3] = biological target: Fuc(a1-2)Gal(b1-3)GalNAc(b1-3)Gal
# Summary of the method: as §1
# [4] = biological target: Fuc(a1-2)Gal(b1-3)GalNAc(b1-3)Gal(a1-4)Gal(b1-4)Glc
# Summary of the method: as §1
# [5] = biological target: Fuc(a1-2)Gal(b1-3)GalNAc(b1-4)[Neu5Ac(a2-3)]Gal(b1-4)Glc
# Summary of the method: as §1
# Fuc(a1-2)Gal(b1-3)GlcNAc = biological target: Fuc(a1-2)Gal(b1-3)GlcNAc
# Summary of the method: as §1
# [6] = biological target: Fuc(a1-2)Gal(b1-3)GlcNAc(b1-2)Man(a1-3)[Fuc(a1-2)Gal(b1-3)GlcNAc(b1-2)Man(a1-6)]Man(b1-4)GlcNAc(b1-4)GlcNAc
# Summary of the method: as §1
# [7] = biological target: Fuc(a1-2)Gal(b1-3)GlcNAc(b1-2)Man(a1-3)[Fuc(a1-2)Gal(b1-3)GlcNAc(b1-2)Man(a1-6)]Man(b1-4)GlcNAc(b1-4)[Fuc(a1-6)]GlcNAc
# Summary of the method: as §1
# [8] = biological target: Fuc(a1-2)Gal(b1-3)GlcNAc(b1-3)Gal(b1-4)Glc
# Summary of the method: as §1
# [9] = biological target: Fuc(a1-2)Gal(b1-3)GlcNAc(b1-3)GalNAc
# Summary of the method: as §1
# [10] = biological target: Fuc(a1-2)Gal(b1-3)GlcNAc(b1-3)[Fuc(a1-2)Gal(b1-3)GlcNAc(b1-6)]GalNAc
# Summary of the method: as §1
# [11] = biological target: Fuc(a1-2)Gal(b1-3)GlcNAc(b1-3)[Gal(b1-4)GlcNAc(b1-6)]Gal(b1-4)Glc
# Summary of the method: as §1
# [12] = biological target: Fuc(a1-2)Gal(b1-3)GlcNAc(b1-3)[Neu5Ac(a2-6)Gal(b1-4)GlcNAc(b1-6)]Gal(b1-4)Glc
# Summary of the method: as §1
# [13] = biological target: Fuc(a1-2)Gal(b1-3)GlcNAc6S
# Summary of the method: as §1
# [14] = biological target: Fuc(a1-2)Gal(b1-3)[Fuc(a1-4)]GlcNAc
# Summary of the method: as §1
# [15] = biological target: Fuc(a1-2)Gal(b1-3)[Fuc(a1-4)]GlcNAc(b1-2)Man(a1-3)[Fuc(a1-2)Gal(b1-3)[Fuc(a1-4)]GlcNAc(b1-2)Man(a1-3)]Man(b1-4)GlcNAc(b1-4)GlcNAc
# Summary of the method: as §1
# [16] = biological target: Fuc(a1-2)Gal(b1-3)[Fuc(a1-4)]GlcNAc(b1-2)Man(a1-3)[Fuc(a1-2)Gal(b1-3)[Fuc(a1-4)]GlcNAc(b1-2)Man(a1-6)]Man(b1-4)GlcNAc(b1-4)[Fuc(a1-6)]GlcNAc(b1-4)[Fuc(a1-6)]GlcNAc
# Summary of the method: as §1
# [17] = biological target: Fuc(a1-2)Gal(b1-3)[Fuc(a1-4)]GlcNAc(b1-3)[Fuc(a1-3)[Gal(b1-4)]GlcNAc(b1-6)]Gal(b1-4)Glc
# Summary of the method: as §1
# [18] = biological target: Fuc(a1-2)Gal(b1-3)[Fuc(a1-4)]GlcNAc(b1-3)[Gal(b1-4)GlcNAc(b1-6)]Gal(b1-4)Glc
# Summary of the method: as §1
# [19] = biological target: Fuc(a1-2)Gal(b1-4)Fuc(a1-3)]GlcNAc(b1-2)Man(a1-3)[Fuc(a1-2)Gal(b1-4)[Fuc(a1-3)]GlcNAc(b1-2)Man(a1-6)]Man(b1-4)GlcNAc(b1-4)GlcNAc
# Summary of the method: as §1
# Fuc(a1-2)Gal(b1-4)Glc = biological target: Fuc(a1-2)Gal(b1-4)Glc
# Summary of the method: as §1
# Fuc(a1-2)Gal(b1-4)Glc6S = biological target: Fuc(a1-2)Gal(b1-4)Glc6S
# Summary of the method: as §1
# Fuc(a1-2)Gal(b1-4)GlcNAc = biological target: Fuc(a1-2)Gal(b1-4)GlcNAc
# Summary of the method: as §1
# [20] = biological target: Fuc(a1-2)Gal(b1-4)GlcNAc(b1-2)Man
# Summary of the method: as §1
# [21] = biological target: Fuc(a1-2)Gal(b1-4)GlcNAc(b1-2)Man(a1-3)[Fuc(a1-2)Gal(b1-4)GlcNAc(b1-2)Man(a1-6)]Man(b1-4)GlcNAc(b1-4)GlcNAc
# Summary of the method: as §1
# [22] = biological target: Fuc(a1-2)Gal(b1-4)GlcNAc(b1-2)Man(a1-3)[Fuc(a1-2)Gal(b1-4)GlcNAc(b1-2)Man(a1-6)]Man(b1-4)GlcNAc(b1-4)[Fuc(a1-6)]GlcNAc
# Summary of the method: as §1
# [23] = biological target: Fuc(a1-2)Gal(b1-4)GlcNAc(b1-2)[Fuc(a1-2)Gal(b1-4)GlcNAc(b1-4)]Man(a1-3)[Fuc(a1-2)Gal(b1-4)GlcNAc(b1-2)Man(a1-6)]Man(b1-4)GlcNAc(b1-4)GlcNAc
# Summary of the method: as §1
# [24] = biological target: Fuc(a1-2)Gal(b1-4)GlcNAc(b1-3)Gal(b1-4)GlcNAc
# Summary of the method: as §1
# [25] = biological target: Fuc(a1-2)Gal(b1-4)GlcNAc(b1-3)Gal(b1-4)GlcNAc(b1-2)Man(a1-3)[Fuc(a1-2)Gal(b1-4)GlcNAc(b1-3)Gal(b1-4)GlcNAc(b1-2)Man(a1-6)]Man(b1-4)GlcNAc(b1-4)GlcNAc
# Summary of the method: as §1
# [26] = biological target: Fuc(a1-2)Gal(b1-4)GlcNAc(b1-3)Gal(b1-4)GlcNAc(b1-3)Gal(b1-4)GlcNAc
# Summary of the method: as §1
# [27] = biological target: Fuc(a1-2)Gal(b1-4)GlcNAc(b1-3)GalNAc
# Summary of the method: as §1
# [28] = biological target: Fuc(a1-2)Gal(b1-4)GlcNAc(b1-3)[Fuc(a1-2)Gal(b1-4)GlcNAc(b1-6)]GalNAc
# Summary of the method: as §1
# [29] = biological target: Fuc(a1-2)Gal(b1-4)GlcNAc(b1-3)[Fuc(a1-3)[Gal(b1-4)]GlcNAc(b1-6)]Gal(b1-4)Glc
# Summary of the method: as §1
# [30] = biological target: Fuc(a1-2)Gal(b1-4)GlcNAc(b1-6)GalNAc
# Summary of the method: as §1
# [31] = biological target: Fuc(a1-2)Gal(b1-4)GlcNAc6S
# Summary of the method: as §1
binder,measurement,setting,value
B1,glycan array binding signal (z-score),Fuc(a1-2)Gal,-0.268
same,glycan array binding signal (z-score),Fuc(a1-2)Gal(b1-3)GalNAc,-0.555
same,glycan array binding signal (z-score),[1],-0.513
same,glycan array binding signal (z-score),[2],-0.4
same,glycan array binding signal (z-score),[3],-0.003
same,glycan array binding signal (z-score),[4],-0.544
same,glycan array binding signal (z-score),[5],-0.123
same,glycan array binding signal (z-score),Fuc(a1-2)Gal(b1-3)GlcNAc,-0.233
same,glycan array binding signal (z-score),[6],-0.26
same,glycan array binding signal (z-score),[7],0.222
same,glycan array binding signal (z-score),[8],-0.36
same,glycan array binding signal (z-score),[9],-0.769
same,glycan array binding signal (z-score),[10],-0.498
same,glycan array binding signal (z-score),[11],0.186
same,glycan array binding signal (z-score),[12],-0.599
same,glycan array binding signal (z-score),[13],-0.085
same,glycan array binding signal (z-score),[14],-0.571
same,glycan array binding signal (z-score),[15],0.658
same,glycan array binding signal (z-score),[16],-0.367
same,glycan array binding signal (z-score),[17],-0.711
same,glycan array binding signal (z-score),[18],-0.455
same,glycan array binding signal (z-score),[19],1.04
same,glycan array binding signal (z-score),Fuc(a1-2)Gal(b1-4)Glc,0.071
same,glycan array binding signal (z-score),Fuc(a1-2)Gal(b1-4)Glc6S,-0.052
same,glycan array binding signal (z-score),Fuc(a1-2)Gal(b1-4)GlcNAc,0.005
same,glycan array binding signal (z-score),[20],-0.487
same,glycan array binding signal (z-score),[21],1.45
same,glycan array binding signal (z-score),[22],0.364
same,glycan array binding signal (z-score),[23],0.561
same,glycan array binding signal (z-score),[24],-0.627
same,glycan array binding signal (z-score),[25],1.65
same,glycan array binding signal (z-score),[26],-0.732
same,glycan array binding signal (z-score),[27],0.925
same,glycan array binding signal (z-score),[28],0.463
same,glycan array binding signal (z-score),[29],-0.746
same,glycan array binding signal (z-score),[30],0.226
same,glycan array binding signal (z-score),[31],-0.751
